Here are results for 109 compounds from PubChem BioAssay AID488969 (Vanderbilt High Throughput Screening Facility, 2010).

In all, about 110,000 compounds were measured (“z-score”: median about -0.1, highest 2% from about 2 on). The list shows a part of the results. Calls of active or inactive are those of the source.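 Rule for the calls: active = z-score in the third read window above 3 or below -3; inactive = the rest.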 Non-standard residues stand in square brackets, D forms with d. Residues, ends and D or L forms follow the SMILES beside them. ξ: configuration not given here. *: point of attachment. Cbz = O=C(OCc1ccccc1)*; ξK = NCCCCC(N)C(=O)O

The target in this test is Metabotropic glutamate receptor 8 (Rattus norvegicus) (UniProt P70579). Put plainly: rat mGluR8 modulators via GIRK flux, primary screen, cell-based, thallium flux, HTS (AID 488969). Particulars: HEK293 rat mGluR8, GIRK (G protein-gated inwardly rectifying potassium channel) thallium flux, FluoZin2; at 10 µM; stronger effect = higher value; submaximal glutamate (EC20) added with thallium.
Sequence of UniProt P70579 (P70579 whole entry, looked up): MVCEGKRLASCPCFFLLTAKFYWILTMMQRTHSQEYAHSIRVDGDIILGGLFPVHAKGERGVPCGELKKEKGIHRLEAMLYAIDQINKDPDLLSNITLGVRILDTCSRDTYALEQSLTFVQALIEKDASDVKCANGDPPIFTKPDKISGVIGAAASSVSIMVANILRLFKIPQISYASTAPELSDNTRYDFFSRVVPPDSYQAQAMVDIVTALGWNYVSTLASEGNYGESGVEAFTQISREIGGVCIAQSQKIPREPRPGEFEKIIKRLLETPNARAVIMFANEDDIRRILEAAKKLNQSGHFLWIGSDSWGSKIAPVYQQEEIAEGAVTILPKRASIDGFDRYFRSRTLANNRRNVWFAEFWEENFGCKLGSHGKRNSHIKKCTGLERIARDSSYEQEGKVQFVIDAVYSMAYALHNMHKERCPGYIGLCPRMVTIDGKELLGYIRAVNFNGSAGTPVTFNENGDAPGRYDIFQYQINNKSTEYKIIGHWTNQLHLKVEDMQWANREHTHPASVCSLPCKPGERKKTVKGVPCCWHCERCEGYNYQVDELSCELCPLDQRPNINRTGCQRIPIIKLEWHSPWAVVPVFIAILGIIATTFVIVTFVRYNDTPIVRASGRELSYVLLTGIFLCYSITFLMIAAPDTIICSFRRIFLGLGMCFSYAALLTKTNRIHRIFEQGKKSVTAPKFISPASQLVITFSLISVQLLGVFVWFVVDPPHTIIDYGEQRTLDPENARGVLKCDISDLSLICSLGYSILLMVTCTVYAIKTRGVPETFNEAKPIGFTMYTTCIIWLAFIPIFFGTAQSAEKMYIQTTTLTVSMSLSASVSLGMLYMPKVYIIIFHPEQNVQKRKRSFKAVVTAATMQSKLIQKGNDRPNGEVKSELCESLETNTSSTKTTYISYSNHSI
The compound `CC(C)(C)N(NC(=O)OCc1ccccc1)C(=O)c1ccccc1` gave a z-score of -0.187. The same measure for `Cc1n[nH]c(=O)nc1NCCc1ccccc1`: 1.04.

`COC(=O)C(CCCCNC(=O)OCc1ccccc1)NC(=O)CN` (centres undefined) (H-Gly-[ξK](Cbz)-OMe) yielded a z-score of -0.116. Take `COc1ccc(C=Nc2cccc3c(=O)[nH][nH]c(=O)c23)c2ccccc12`: the z-score is -0.412. On to `Cc1ccc(OCc2cc(C(=O)Nc3ccccc3)oc2C)cc1`, for which the z-score was -0.14.

Take `O=C1C=C(c2cccs2)CC(c2cccs2)C1n1cnc([N+](=O)[O-])c1` (centres undefined): the z-score was -0.313.

Turning to `CC(C)CCNC(=O)C(c1cccs1)N(CC1CCCO1)C(=O)Cn1nnc2ccccc21` (centres undefined), the z-score was -0.28.

With `Cc1c(Cl)cccc1-n1c(SCC(=O)NCc2ccccc2Cl)nnc1-c1ccncc1`, the z-score is -0.28. Then `COc1ccc(Cl)cc1NC(=O)c1nc2nc(C)cc(C(F)F)n2n1`, with 0.261. Consider `COc1ccc(-c2nc3c4ccccc4[nH]c(=O)n3n2)cc1`, for which the z-score is -1.23. Then `Clc1ccc(-c2csc(NNC3=NCCCCC3)n2)cc1`, with -0.25; and `COc1ccc([N+](=O)[O-])cc1NC(=O)CCN1CCN(c2ccccc2OC)CC1`, with -0.168; and `Cn1c(SCc2nnc(-c3ccc(F)cc3)o2)nnc1C1COc2ccccc2O1` (centres undefined), with -0.382. Consider `O=C(Nc1nc2nccc(-c3ccccc3)n2n1)c1ccc(F)cc1`, for which the z-score is -0.642. `O=C(CCS(=O)(=O)c1cccc2nsnc12)N1CCN(Cc2ccc3c(c2)OCO3)CC1` yielded a z-score of 0.136. Then `CCc1ccccc1NC(=O)CN(C)C(=O)COc1ccc(C)nc1[N+](=O)[O-]`, with -0.538; and `CCCC1C(C#N)=C(N)Oc2cc(C)n(C)c(=O)c21` (centres undefined), with 0.662. Then `Cc1ccc(S(=O)(=O)N2CCOCC2)cc1C(=O)NCCCn1ccnc1`, with -0.309. The same measure for `O=C(CCCc1nc2ccccc2s1)NC(c1ccccc1)c1ccccc1`: -0.315; for `O=C(CN1CCCC1)N/N=C/c1ccc(-c2cccc(Cl)c2)o1`: -0.192; for `COc1ccccc1C1CC(=O)Nc2cc3c(cc21)OCCO3` (centres undefined): 0.272. In turn, `Cc1cccc(NC(=O)C2CCCN(C(=O)Nc3ccccc3)C2)c1C` (centres undefined) came in with a z-score of 0.55. The same measure for `O=C(Nc1ccc(Cl)cc1)c1cc2nc(-c3ccco3)cc(C(F)(F)F)n2n1`: -0.181; for `O=C(Cc1cccc2ccccc12)N1CCCc2ccccc21`: -0.0088. Then `CC(C)CCn1c(=O)c2ccccc2c2ccccc2c1=O`, with 0.474; and `O=C(CCCC(=O)N(CC(=O)NC1CCCCC1)Cc1ccc2c(c1)OCO2)Nc1ccccn1`, with -0.358. On to `O=C(CN1CCSCC1)N/N=C/c1ccc(F)c(F)c1`, for which the z-score is -0.167.

Turning to `CCOc1ccc(NC(=O)C2CCCN(S(=O)(=O)c3c(C)nn(C)c3C)C2)cc1` (centres undefined), the z-score was -0.442. In turn, `Cc1ccc(S(=O)(=O)N(C(=O)c2ccncc2)c2ccc(OC(=O)c3ccncc3)c3ccccc23)c(C)c1` had a z-score of 0.37. Then `CCC(=O)NNc1ncnc2ccccc12`, with -0.196; and `Cc1nc(Cc2nnc(SCc3nc(N)nc(Nc4ccccc4C)n3)o2)cs1`, with -0.183.

For the compound `CSc1nnc(N(CCC#N)CCC#N)s1`, the z-score was -0.113. Turning to `CN1C(=O)CC(C(=O)O)SC1=Nc1cc(Cl)c(O)c(Cl)c1` (centres undefined), the z-score amounted to 0.0261. The compound `COc1ccc(C(NC(=O)/C=C/c2ccco2)c2ccc(OC)c(OC)c2)cc1` (centres undefined) showed a z-score of -0.0995. Turning to `C/C(NCCN1CCOCC1)=C(\C#N)C(N)=O`, the z-score was -0.809. Then `CN(C)S(=O)(=O)c1ccc(C(=O)Nc2ccnn2C2CCCCC2)cc1`, with -0.332; and `CC1CCCCC12NC(=O)N(CC(=O)Nc1ccc(S(=O)(=O)N3CCOCC3)cc1)C2=O` (centres undefined), with 0.163; and `O=C(/C=C/c1ccccn1)c1ccc(Br)cc1O`, with -0.442. Then `CS(=O)(=O)N(CC(=O)Nc1cccc(F)c1)c1cccc([N+](=O)[O-])c1`, with 0.126. Then `COc1cccc(/C=N\NC(=O)c2cc(OCC(F)(F)F)ccc2OCC(F)(F)F)c1`, with -0.169. Compound `Cc1cc(C)nc(-n2nc(C)c3c(C)c(C)c(C)nc32)n1` returned a z-score of 0.0323. The same measure for `COc1ccc(NC(=O)CN(c2ccc(C(C)C)cc2)S(=O)(=O)c2c(C)noc2C)cc1OC`: -0.602; for `CC(/C=C/c1ccc2c(c1)OCO2)=N/NC(=O)C1COc2ccccc2O1` (centres undefined): -0.296.

The compound `CN(C)c1ccnc2sc3c(=O)n(Cc4ccccc4)cnc3c12` gave a z-score of -0.622. `CCCCNc1nc2ccccc2[nH]1` showed a z-score of 0.348. `Cc1c(/C=N/NC(=O)COc2ccccc2[N+](=O)[O-])c2ccccc2n1C` came in with a z-score of -0.244.

For the compound `O=C(Nc1nonc1NC(=O)C1CCCCC1)C1CCCCC1`, the z-score is -0.205. The same measure for `O=C(Nc1ccc(-c2nc3ncccc3o2)cc1)c1ccco1`: 0.0382. In turn, `Cc1ccc(N(C(=O)c2ccc(Br)o2)C2C=CS(=O)(=O)C2)cc1` (centres undefined) returned a z-score of 0.0636.

In turn, `Cc1nn(CC#N)c(=O)n1-c1ccccc1` came in with a z-score of -0.0588. The same measure for `CCC(=O)Nc1cccc(-c2nnc(-c3cccc(NC(=O)CC)c3)o2)c1`: 0.735; for `Cc1noc(C)c1CS(=O)(=O)c1ccc(Br)cc1`: 0.923; for `Cc1cc(C2C(C#N)=C(N)Oc3n[nH]c(C)c32)c(C)s1` (centres undefined): 0.591.

As for `Cc1ccc(C(=O)COC(=O)CCCC(=O)NC2CCCCC2)cc1[N+](=O)[O-]`, the z-score is -0.237. The same measure for `OCCN(Cc1ccccc1)CC1CCCCC1`: 0.614. `COc1cccc2cc(C(=O)NCc3ccccn3)c(=O)oc12` showed a z-score of -0.114. Then `CCOC(=O)N1CCC(NC(=O)Cn2nc(Cc3ccncc3)c3ccccc3c2=O)CC1`, with 0.713. The same measure for `CC(c1ccccc1)n1cc(C(=O)NCC2CCCO2)nn1` (centres undefined): -0.108.

`CCN(CC)S(=O)(=O)c1ccc(S(=O)(=O)N(CC(=O)Nc2ccccc2)CC2CCCO2)cc1` (centres undefined) registered a z-score of -0.241. Then `O=C(NCCCNCc1ccccc1)/C(=N\O)c1ccccc1`, with 0.267. Then `COCCNC(=O)CCn1nc(-c2ccc(Cl)cc2)ccc1=O`, with 0.962. `Cc1ccc(C)c2c1cc(C)c1nnc(SCc3ccccn3)n12`: the z-score stood at 0.0637. `N=C1C(c2ccccc2)=C(O)CN1c1ccc2c(c1)OCO2`: the z-score is -0.681. Then `CCOC(=O)/C(C#N)=C/c1ccc(OC(=O)c2ccco2)c(OCC)c1`, with -0.201; and `COc1ccc(-n2c(Cc3cccn3C)nnc2SCC(=O)Nc2ccccc2C)cc1`, with -0.329; and `CCC(=O)Nc1ccc(Oc2ccc3c(c2)C(=O)NC3=O)cc1`, with -0.161. In turn, `CCOc1ccccc1N(CC(=O)N1CCOCC1)S(=O)(=O)c1ccc(SC)cc1` gave a z-score of 0.146. The same measure for `CCOC(=O)CSc1n[nH]c(NC(=O)c2ccc(F)cc2)n1`: 1.85.

With `CN(C(=O)CSc1nc2c(c(=O)[nH]1)CCCC2)C1CCCCC1`, the z-score was -0.116. The same measure for `S=C(NCc1ccccn1)Nc1cccc(Cl)c1`: -0.0144; for `Cc1ccc(S(=O)(=O)NCCN2CCOCC2)cc1`: -0.213; for `COc1ccc(NC(C)C(=O)N/N=C/c2ccccc2OCc2cccc(Br)c2)cc1` (centres undefined): -0.15.

In the case of `CCCCn1nnnc1SCC(=O)c1ccc(C)c(C)c1`, the z-score was determined as 0.192. In turn, `O=C(O)c1cccc(N2CCCC2)c1` displayed a z-score of -0.186. Then `CCOC(=O)C(NC(=O)c1ccc(OC)cc1)(Nc1cc(C)on1)C(F)(F)F` (centres undefined), with 0.0402.

`COc1cccc(/C=N/NC(=O)c2cc3c(OC)cccc3[nH]2)c1O`: the z-score is 0.316. For `CCn1nc(C)c(NC(=O)CSc2nnc(-c3ccco3)n2C)c1C`, the z-score was determined as 0.267. Regarding `CCOC(=O)C(C(=O)OCC)C1CS(=O)(=O)CC1C(C(=O)OCC)C(=O)OCC` (centres undefined), the z-score is 0.0478. `COc1ccc(CCNC(=O)COC(=O)C23CC4CC(CC(Br)(C4)C2)C3)cc1` had a z-score of -0.354. The same measure for `Cc1ccc(C(=O)CC(Nc2ccc(F)cc2)c2ccccc2)cc1` (centres undefined): -0.0356; for `COc1cc(S(=O)(=O)N2CCOCC2)cc(C(=O)c2nccn2C)c1OC`: 0.65; for `COC(=O)c1ccc(/C=C2\N=C(SC)SC2=O)cc1`: -0.529. The same measure for `O=C(CSc1nc(-c2ccccc2)cs1)Nc1nccs1`: 0.0703; for `COc1ccccc1/C=C/C(=O)c1ccc(Cl)cc1`: -0.189. The same measure for `COC(=O)c1ccc(NC(=O)CSc2ccccn2)cc1`: 0.0306. The compound `CC(C)NCCCOc1ccc(C(C)(C)c2ccccc2)cc1` gave a z-score of 0.192. Then `CCc1ccc(-c2cc(C(=O)Nc3c(C)n(C)n(-c4ccccc4)c3=O)c3ccccc3n2)s1`, with -0.167; and `C/C(=C\c1ccco1)C1C(C#N)=C(N)OC2=C1C(=O)CC(C)(C)C2` (centres undefined), with -0.0699; and `CCCCn1c(NC(=S)Nc2ccccc2)nc2ccccc21`, with 2.55. In the case of `Cc1nc2nc(Cc3ccccc3)[nH]n2c(=O)c1Cc1ccccc1`, the z-score is active: -3.69. Then `CC1(C)CC(=O)C2=C(C1)N(N1CCOCC1)C(N)=C(C#N)C2c1cccnc1` (centres undefined), with 0.973; and `O=C(CCCc1ccccc1)NC1CCSC1=O` (centres undefined), with -0.328. With `Cc1ccccc1-n1c(=O)cc(N2CCc3ccccc32)[nH]c1=O`, the z-score was determined as 0.356. For the compound `COc1ccc(C(=O)NC(=S)N2CCN(c3ccc([N+](=O)[O-])cc3)CC2)cc1`, the z-score stood at 0.274. Turning to `CC1(C(=O)N(CC(=O)NC2CCCC2)Cc2ccco2)CC(=O)N=C2C=CC=CN21` (centres undefined), the z-score came out at 0.194.

Compound `Cc1c(NC(=O)CSc2nnc(C(C)Oc3ccc(Cl)cc3)n2-c2ccccc2)c(=O)n(-c2ccccc2)n1C` (centres undefined) showed a z-score of -0.583.

For `CNC(=O)c1ccccc1S(=O)c1ccccc1C#N` (centres undefined), the z-score was -0.00179. Regarding `COc1ccc(CC(=O)NCc2cccs2)cc1`, the z-score was 0.187. The same measure for `O=c1c(-c2ccc(Cl)cc2)[n+]([O-])c2ccccc2n1O`: active: 14.

As to `Cc1ccc(NC(=O)c2cc(-c3ccc(C)o3)nc3ccccc23)cc1`, the z-score was -0.215. The same measure for `O=C(Nc1ccc(N2CCCC2)cc1)c1ccc(Br)o1`: -0.462; for `Cc1ccc(C(=O)N2CCN(c3ccc(C(F)(F)F)cn3)CC2)c(C)c1`: -0.0998. The same measure for `CCC(CC)NC(=O)CON=C1c2ccccc2-c2ccccc21`: -0.376. The same measure for `O=c1[nH]c2ccc(Cl)cc2c(-c2ccccc2)c1CN1CCOCC1`: -0.384. In the case of `CN(C)S(=O)(=O)c1ccc(C(=O)Nc2ccccc2OC(F)(F)C(F)F)cc1`, the z-score is -0.525.

In the case of `Cc1ccc(CC(=O)N2CCN(c3cccc(C(F)(F)F)c3)CC2)cc1`, the z-score was active: 6.97. For `CCCC(=O)N1CCc2cc(-c3nc(N)sc3C)ccc21`, the z-score is -0.205. Then `COc1ccccc1NS(=O)(=O)c1cc(NC(=O)c2cccs2)ccc1N1CCCCC1`, with 0.0282. The same measure for `COc1ccc(Cn2c(-c3ccc(C)cc3)nc3c(c(=O)c4ccccc4n3C)c2=O)cc1`: 0.0797.
